ChEMBL document CHEMBL4888484, “Replenishing the malaria drug discovery pipeline: Screening and hit evaluation of the MMV Hit Generation Library 1 (HGL1) against asexual blood stage Plasmodium falciparum ,using a nano luciferase reporter read-out” (2022)
The whole screen tested about 150,000 compounds, of which about 540 (0.36%) showed an effect of 50% or more. The list shows a part of the results.

These compounds were tested on Plasmodium falciparum (assay: Primary screen in NF54 nanoGlo assay, in single point, at 2uM, 72h; a lower Z score goes with more inhibition). Conditions: timepoint 72 hour.
Format: functional, Erythrocyte
With Cc1nc[nH]c1C(=O)NC[C@H]1CCCN(c2ccncc2)C1 the “% Inhibition” value was -19% and the Z score was 1.63.
For O=C(N[C@H]1CCCCNC1=O)c1cc(C2CC2)[nH]n1, the “% Inhibition” value was 3% and the Z score was -0.45.
In the case of CN(C)C1(CNc2c(F)cc(C#N)cc2F)CCOCC1, the “% Inhibition” value is reported as 6% and the Z score is reported as -1.12.
COc1cccc(C(=O)N(Cc2csc(COc3cc(C)cc(C)c3)n2)C2CC2)c1 was tested, and the “% Inhibition” value was -12% and the Z score was 1.63.
O=C(C[C@H]1CCC(F)(F)C1)Nc1ccc(O)cc1Br was tested, and the “% Inhibition” value was -9% and the Z score was 1.41.
In the case of Cc1ccc(N(C(=O)[C@@H]2C[C@H]2c2cnn(C)c2)C2CCCCC2)nc1, the “% Inhibition” value is reported as -9% and the Z score is reported as 1.81.
For C[C@H]1CN(S(=O)(=O)c2cccc3c2OCC3)Cc2ccccc2O1, the “% Inhibition” value was -7% and the Z score was 1.09.
In the case of COc1cccc([C@@H]2CC(=O)c3cc4c(cc3N2)OCO4)c1, the “% Inhibition” value is reported as -4% and the Z score is reported as 0.49.
O=C(NC1CCCN(C(=O)C2CCC(C3CC3)N2)C1)c1ccc2ccccc2c1 (stereo not given) was tested, and the “% Inhibition” value was 9% and the Z score was -1.4.
In the case of O=C(c1ccccc1-c1nnn[nH]1)N1CCc2[nH]c(-c3cccnc3)nc2C1, the “% Inhibition” value is reported as -4% and the Z score is reported as 0.66.
With CN1CCN([C@H]2CCN(c3nccc4ccccc34)C2)CC1 the “% Inhibition” value was -9% and the Z score was 0.83.
In the case of O=C(NCC1CC1c1ccccc1)NC1CC1 (stereo not given), the “% Inhibition” value is reported as 28% and the Z score is reported as -3.17.
With Cn1c(=O)n(CC(=O)N2C[C@H]3CCS(=O)(=O)[C@H]3C2)c2ccccc21 the “% Inhibition” value was -10% and the Z score was 1.52.
O=C(NCCN1CCC[C@H](CO)C1)c1cccc(-c2ccc3occc3c2)c1 was tested, and the “% Inhibition” value was -3% and the Z score was 0.37.
In the case of COc1ccc(NCc2ccc(-c3c(F)cccc3F)o2)cc1CO, the “% Inhibition” value is reported as -12% and the Z score is reported as 1.19.
In the case of Cc1c(Br)c(C(F)F)nn1[C@@H](C)c1nnc(-c2ccncc2)o1, the “% Inhibition” value is reported as -28% and the Z score is reported as 3.28.
COc1ccc(CCC(=O)N[C@H]2CCCN(C3CCN(C)CC3)C2)cc1 was tested, and the “% Inhibition” value was -11% and the Z score was 1.61.
For CCN1C(=O)c2cc(NC(=O)NCc3ccc(OC)c(OC)c3)ccc2Oc2ccccc21, the “% Inhibition” value was 20% and the Z score was -2.54.
For CCc1nnc(NC(=O)C2CCOCC2)s1, the “% Inhibition” value was -17% and the Z score was 1.4.
For Cc1cc(C(=O)NCc2nc(C(F)(F)F)no2)ns1, the “% Inhibition” value was 20% and the Z score was -2.35.
O=C1COc2ccccc2N1Cc1noc([C@@H]2CCCO2)n1 was tested, and the “% Inhibition” value was 3% and the Z score was -0.56.
In the case of N#Cc1cccc(S(=O)(=O)N2CCC3(CCC(=O)N(C4CC4)C3)CC2)c1, the “% Inhibition” value is reported as -20% and the Z score is reported as 2.12.
With CCC/C=C/CN1CCC(CC(=O)NC)CC1 the “% Inhibition” value was -6% and the Z score was 1.2.
For CN1CCC(O)(c2ccc3c(c2)CN(Cc2ccc(F)cc2F)CCO3)CC1, the “% Inhibition” value was 6% and the Z score was -0.71.
In the case of COC[C@@H]1CC(F)(F)CN1C1CN(S(=O)(=O)c2ccc(F)c(C)c2)C1, the “% Inhibition” value is reported as 4% and the Z score is reported as -0.52.
For CC(C)C(=O)N1CCc2cc(CNC(=O)c3ccco3)ccc21, the “% Inhibition” value was -13% and the Z score was 1.22.
For CCCn1cnnc1CN(C)Cc1ccc(OC)cc1C, the “% Inhibition” value was 1% and the Z score was -0.18.
In the case of CN[C@@H](C(=O)NCCc1ccccc1OC)c1cnn(C)c1, the “% Inhibition” value is reported as -11% and the Z score is reported as 1.12.
In the case of COc1ccc([C@H]2CC(=O)Nc3ncn(-c4ccc(F)cc4)c32)cc1OC, the “% Inhibition” value is reported as -1% and the Z score is reported as 0.16.
In the case of Cc1nn(C)cc1CNc1nc(-c2ccccn2)nc2c1CCNCC2, the “% Inhibition” value is reported as -7% and the Z score is reported as 0.95.
With CCCC[C@@H](c1cccnc1)N(C)Cc1c(C)nn(C)c1Cl the “% Inhibition” value was -3% and the Z score was 0.29.
In the case of O[C@H]1CCN(Cc2cccc(OCCCCN3CCOCC3)c2)C[C@@H]1O, the “% Inhibition” value is reported as 4% and the Z score is reported as -0.63.
In the case of COc1ccc(-n2nnnc2-c2cn(C)nc2C(F)(F)F)cc1, the “% Inhibition” value is reported as -10% and the Z score is reported as 1.86.
For COc1ccc(C(=O)N2CCC3(CC2)OC[C@@H](C(=O)N2CCOCC2)N3C(=O)c2ccccc2)cc1OC, the “% Inhibition” value was -16% and the Z score was 2.65.
For Cc1cc(CNC(=O)c2cn(Cc3cccc4ccccc34)nn2)n[nH]1, the “% Inhibition” value was -5% and the Z score was 0.8.
In the case of CC(=O)N1CCC(C(=O)Nc2sc(C)c(C)c2C(=O)NCc2cccnc2)CC1, the “% Inhibition” value is reported as -5% and the Z score is reported as 1.07.
In the case of O=S(=O)(c1cccc(-c2nnc(-c3ccccc3)c(-c3ccccc3)n2)c1)N1CCCCC1, the “% Inhibition” value is reported as -10% and the Z score is reported as 1.31.
In the case of CCN(CC)CCCNC(=O)C1CCN(c2nc3ccccc3[nH]2)CC1, the “% Inhibition” value is reported as 6% and the Z score is reported as -1.03.
In the case of CCN(Cc1nccn1C)C(=O)CN1CCOC1=O, the “% Inhibition” value is reported as -6% and the Z score is reported as 1.13.
With CCc1ccc(C2CC(C)CCN2c2cc(C)nc3nc(C(F)(F)F)nn23)o1 (stereo not given) the “% Inhibition” value was -6% and the Z score was 0.81.
O=C(Nc1ccccc1)C(F)(OC(F)(F)C(F)(OC(F)(F)C(F)(F)C(F)(F)F)C(F)(F)F)C(F)(F)F (stereo not given) was tested, and the “% Inhibition” value was 14% and the Z score was -1.88.
In the case of CC(C)C(NC(=O)N[C@H]1[C@@H]2COC[C@@H]21)c1nncn1C (stereo not given in full), the “% Inhibition” value is reported as 8% and the Z score is reported as -1.03.
In the case of O=C(Nc1cc(F)c(F)c(F)c1)[C@@H]1CC(O)=Nc2c1c(=O)[nH]c(=O)n2Cc1ccccc1, the “% Inhibition” value is reported as -14% and the Z score is reported as 1.58.
With COc1ccccc1C(=O)N1CCc2cc3ccc2[C@@H]1c1cccc(c1)OCCCNC(=O)CO3 the “% Inhibition” value was -12% and the Z score was 1.6.
With Cc1cc(CNc2ccc(CC#N)cc2)c(C)o1 the “% Inhibition” value was 6% and the Z score was -0.67.
For COc1cccc(C(=O)NC[C@@]23CCCC=C2N(CC2CC2)C(=O)CC3)c1, the “% Inhibition” value was -14% and the Z score was 2.05.
With CC1CCCC(C(=O)N2CC3CCC2C3)C1 (stereo not given) the “% Inhibition” value was -11% and the Z score was 1.37.
With Cc1nccc(NC(=O)NC2C3CCOC3C23CCC3)c1Cl (stereo not given) the “% Inhibition” value was -3% and the Z score was 0.34.
Fc1ccc(C(Cn2cnc3ccccc32)NC2CCOC2)cc1 (stereo not given) was tested, and the “% Inhibition” value was -1% and the Z score was 0.14.
With CCc1noc(NCc2ccc3c(c2)OCO3)c1C(=O)Nc1ccc(F)cc1 the “% Inhibition” value was -2% and the Z score was 0.27.
In the case of CCC12CCCN1C(=O)N(CC(C)Oc1ccc(F)cc1)C2=O (stereo not given), the “% Inhibition” value is reported as 8% and the Z score is reported as -1.1.
COC[C@H]1CCCN(C(=O)Nc2ccnc(C)n2)C1 was tested, and the “% Inhibition” value was -1% and the Z score was 0.12.
With CC(C)CNC(=O)N1CCC[C@H](C2=NC(=C3N=CC=N3)NO2)C1 the “% Inhibition” value was -12% and the Z score was 2.15.
CCN(C(=O)Cn1cc(-c2ccc(C)cc2)c(N2CCOCC2)n1)c1cccc(C)c1 was tested, and the “% Inhibition” value was -3% and the Z score was 0.5.
With CC(C)c1ccc(OC(=O)CCN2C(=O)c3ccccc3C2=O)cc1 the “% Inhibition” value was -3% and the Z score was 0.41.
With O=C(NCc1ccc(-n2cncn2)nc1)c1ccc(=O)[nH]n1 the “% Inhibition” value was -9% and the Z score was 1.51.
For Cn1ncnc1CN1CCC[C@H](c2ccc(F)cc2)CC1, the “% Inhibition” value was 2% and the Z score was -0.3.
c1cnc2cnn(CC[C@H]3CCCO3)c2c1 was tested, and the “% Inhibition” value was -19% and the Z score was 2.43.
In the case of COC(C)(C)CCNc1cc(C(C)C)ncn1, the “% Inhibition” value is reported as 2% and the Z score is reported as -0.27.
For CCOc1ccccc1NC(=O)N1C[C@H](N(C)C)C[C@H]1CO, the “% Inhibition” value was -7% and the Z score was 0.69.
Cc1nn(-c2ccccc2)c(C)c1C(=O)Nc1cccc(N2CCCC2=O)c1 was tested, and the “% Inhibition” value was 42% and the Z score was -5.47.
In the case of Cc1cc(C)n(C(=O)c2c(-c3ccccc3)c(-c3ccccc3)n[nH]c2=O)n1, the “% Inhibition” value is reported as 3% and the Z score is reported as -0.6.
C[C@@H](c1nnc(-c2cccs2)o1)N1CCC2(CC1)OCCO2 was tested, and the “% Inhibition” value was -9% and the Z score was 1.4.
For O=C(CC1C=CCC1)N1CCCC(CN2CCCC2)C1 (stereo not given), the “% Inhibition” value was -5% and the Z score was 0.73.
In the case of Cc1ccccc1OCC(=O)NC(C)(C)C, the “% Inhibition” value is reported as 5% and the Z score is reported as -0.81.
For Cc1c(C(=O)N2C[C@@H](C)CN(C)c3ccccc32)nnn1-c1cnn(C)c1, the “% Inhibition” value was -11% and the Z score was 1.12.
With Cc1cnc(C)c(Oc2cccc(CN3CCCC3)c2F)n1 the “% Inhibition” value was -8% and the Z score was 1.3.
With Cc1cc(C(=O)NCc2ccc(N(C)C)cc2)c2c(=O)n(C)c(=O)n(C)c2n1 the “% Inhibition” value was -3% and the Z score was 0.34.
C[C@@H](CCN(C)CCn1cc(C(=O)NCc2ccncc2)nn1)c1ccccc1 was tested, and the “% Inhibition” value was -14% and the Z score was 1.89.
In the case of COC(CNC(=O)c1ccc(-n2cccn2)nn1)OC, the “% Inhibition” value is reported as -12% and the Z score is reported as 2.33.
COc1cc(NS(=O)(=O)N2CC3CCC2C3)c(F)cc1C#N (stereo not given) was tested, and the “% Inhibition” value was -3% and the Z score was 0.47.
For CCC(C)(CC)[C@@](O)(C#CC[N+]1(Cc2ccccc2Cl)CCCCC1)c1ccccc1, the “% Inhibition” value was 39% and the Z score was -4.45.
With Cc1cc(O)cc(=O)n1CCC(=O)N1CC(c2ccccc2)CC1C (stereo not given) the “% Inhibition” value was -6% and the Z score was 0.68.
In the case of CCn1nc(Cc2c(Cl)cccc2Cl)nc1CNC1CC1, the “% Inhibition” value is reported as -5% and the Z score is reported as 0.95.
CN1C(=O)[C@@H]2CCCCN2c2ccc(C(=O)NC3CCCC3)cc21 was tested, and the “% Inhibition” value was 11% and the Z score was -1.58.
With C=CCNC(=NCc1ccc(OC)cc1)NCC1CC1 the “% Inhibition” value was -2% and the Z score was 0.2.
CN1CCOC[C@H]2CCN(S(=O)(=O)c3ccc4c(c3)OCCO4)C[C@H]21 was tested, and the “% Inhibition” value was -12% and the Z score was 2.35.
In the case of CCc1nnsc1C(=O)Nc1ccc(Cl)cn1, the “% Inhibition” value is reported as -8% and the Z score is reported as 1.54.
With COC(=O)c1cc(F)c(F)c(N)c1Cl the “% Inhibition” value was 1% and the Z score was -0.12.
Cc1c(S(=O)(=O)Nc2cc(C(C)(C)F)on2)cnn1C was tested, and the “% Inhibition” value was 29% and the Z score was -2.46.
Cc1ccc(Nc2[nH]nnc2C(=O)N2CCc3ccccc3C2)cc1C was tested, and the “% Inhibition” value was -10% and the Z score was 1.29.
In the case of O=C(Cn1cnc2ccccc21)NCc1ccccc1-c1ccsc1, the “% Inhibition” value is reported as 5% and the Z score is reported as -0.86.
For Cc1nn(C)c(C)c1C(=O)Nc1ccc2c(c1)OCCCO2, the “% Inhibition” value was -3% and the Z score was 0.51.
In the case of Cc1nc(N)nc(NCCc2ncc[nH]2)c1Cl, the “% Inhibition” value is reported as -10% and the Z score is reported as 0.89.
With C#Cc1cccc(NC(=O)N[C@@H](C)C(C)(C)CN(C)C)c1 the “% Inhibition” value was 8% and the Z score was -1.32.
